Experimental data taken from the supplement of paper PMC11880418.
Structures can show the parent of a compound that is named as a salt. The list shows a part of the results. The data scatter; read single values as rough. Residues, ends and D or L forms follow the SMILES beside them.

system: PANC1; assay: ALDHbr (CSC) cell proportion score relative to DMSO vehicle (ratio to DMSO); breast (SUM159) / gastric (MKN45) / pancreatic (PANC1) / colon cancer lines; ALDHbr cells have high ALDH activity and are rich in cancer stem cells (CSC); higher = more CSC (ALDHbr) cells remaining; details: 10 µM; 72 h
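Also: High-content imaging of ALDEFLUOR-stained cells with Hoechst-labelled nuclei in 384-well plates, triplicate wells, scored as Z-score against 0.1% DMSO vehicle, negative meaning fewer ALDHbr cells.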

| Structure (SMILES) | ALDHbr |
| --- | --- |
| Cc1cccc(C)c1OCC(C)N (stereo not given) [Mexiletine hydrochloride] | 0.701 |
| CCC(=O)O[C@]1(C(=O)SCF)[C@H](C)C[C@H]2[C@@H]3C[C@H](F)C4=CC(=O)C=C[C@]4(C)[C@@]3(F)[C@@H](O)C[C@@]21C [Fluticasone propionate] | 0.658 |
| CC(C)(C)NC(=O)[C@@H]1CN(Cc2cccnc2)CCN1C[C@@H](O)C[C@@H](Cc1ccccc1)C(=O)N[C@H]1c2ccccc2C[C@H]1O [Indinavir sulfate] | 0.799 |
| COc1ccc(C(=O)CC(=O)c2ccc(C(C)(C)C)cc2)cc1 [Avobenzone] | 1.15 |
| CC(C)C(=O)Nc1ccc([N+](=O)[O-])c(C(F)(F)F)c1 [Flutamide] | 0.868 |
| CN1CCCN=C1/C=C/c1cccs1 [Pyrantel tartrate] | 0.856 |
| CCN(CC)CCOC(=O)C1(C2CCCCC2)CCCCC1 [Dicyclomine hydrochloride] | 0.845 |
| COc1ncnc(NS(=O)(=O)c2ccc(N)cc2)c1OC [Sulfadoxine] | 0.923 |
| CC(C)(CO)C(O)C(=O)NCCCO (stereo not given) [Panthenol (D)] | 0.896 |
| CC1Cc2ccccc2N1NC(=O)c1ccc(Cl)c(S(N)(=O)=O)c1 (stereo not given) [Indapamide] | 0.931 |
| CC(=O)N[C@@H](CC(=O)O)C(=O)N[C@@H](CCC(=O)O)C(=O)O [Spaglumic acid] (Ac-Asp-Glu-OH) | 1.12 |
| COc1ccc(-c2cc(=S)ss2)cc1 [Anethole-trithione] | 0.701 |
| CC(=O)O[C@]1(C(C)=O)CC[C@H]2[C@@H]3C=C(Cl)C4=CC(=O)[C@@H]5C[C@@H]5[C@]4(C)[C@H]3CC[C@@]21C [Cyproterone acetate] | 0.75 |
| Cc1nccn1CC1CCc2c(c3ccccc3n2C)C1=O (stereo not given) [Ondansetron Hydrochloride] | 1.01 |
| CCCN(CCC)C(=O)C(CCC(=O)O)NC(=O)c1ccccc1 (stereo not given) [Proglumide] | 0.879 |
| CN[C@@H]1[C@@H](O)[C@@H](O[C@@H]2[C@@H](O)[C@H](O[C@H]3OC(CN)=CC[C@H]3N)[C@@H](N)C[C@H]2N)OC[C@]1(C)O [Sisomicin sulfate] | 0.871 |
| CO[C@@]1(NC(=O)C(C(=O)O)c2ccc(O)cc2)C(=O)N2C(C(=O)O)=C(CSc3nnnn3C)CO[C@@H]21 (stereo not given in full) [Moxalactam disodium salt] | 0.844 |
| NC[C@@H]1O[C@H](O[C@H]2[C@@H](O)[C@H](O[C@@H]3[C@@H](O)[C@H](N)C[C@H](N)[C@H]3O[C@H]3O[C@H](CN)[C@@H](O)[C@H](O)[C@H]3N)O[C@@H]2CO)[C@H](N)[C@@H](O)[C@@H]1O [Neomycin sulfate] | 0.891 |
| CC[C@@H](CO)NCCN[C@@H](CC)CO [Ethambutol dihydrochloride] | 0.875 |
| CCOc1ccc(Cc2nccc3cc(OCC)c(OCC)cc23)cc1OCC [Ethaverine hydrochloride] | 1.07 |

| Structure (SMILES) | ALDHbr |
| --- | --- |
| CC(C)NCC(O)COc1ccc(CCOCC2CC2)cc1 (stereo not given) [Betaxolol hydrochloride] | 0.893 |
| Cc1cn[nH]c1 [Fomepizole] | 0.924 |
| CCCCCCCN(CC)CCCC(O)c1ccc(NS(C)(=O)=O)cc1 (stereo not given) [Ibutilide fumarate] | 0.861 |
| COc1ccccc1N1CCN(CCCNc2cc(=O)n(C)c(=O)n2C)CC1 [Urapidil hydrochloride] | 0.84 |
| NC[C@H]1O[C@H](O[C@H]2[C@H](O[C@@H]3O[C@H](CO)[C@@H](O)[C@H]3O)[C@@H](O)[C@H](N)C[C@@H]2N)[C@H](N)[C@@H](O)[C@@H]1O [Ribostamycin sulfate salt] | 0.829 |
| O=C(O[C@@H]1C[C@@H]2C[C@H]3C[C@H](C1)N2CC3=O)c1c[nH]c2ccccc12 [Dolasetron mesilate] | 0.744 |
| CNCCC(Oc1ccccc1OC)c1ccccc1 (stereo not given) [Nisoxetine hydrochloride] | 0.992 |
| CCN1CCC[C@H]1CNC(=O)c1c(OC)ccc(Br)c1OC [Remoxipride Hydrochloride] | 1.11 |
| COc1cc(NC(C)CCCN)c2ncccc2c1 (stereo not given) [Primaquine diphosphate] | 1.21 |
| Cc1cc2c(cc1S(N)(=O)=O)S(=O)(=O)CCC2 [Meticrane] | 0.706 |
| Nc1nc(=O)[nH]cc1F [Flucytosine] | 0.811 |
| COc1ccccc1O [Guaiacol] | 0.956 |
| NS(=O)(=O)c1cc2c(cc1Cl)NC(CC1CCCC1)NS2(=O)=O (stereo not given) [Cyclopenthiazide] | 0.946 |
| C[C@@H]1CCC[C@H](C)N1NC(=O)c1ccc(Cl)c(S(N)(=O)=O)c1 [Clopamide] | 0.862 |
| CC1(C)S[C@@H]2[C@H](NC(=O)Cc3ccccc3)C(=O)N2[C@H]1C(=O)O [Benzylpenicillin sodium] | 0.908 |
| CCc1ccc(CCOc2ccc(CC3SC(=O)NC3=O)cc2)nc1 (stereo not given) [Pioglitazone] | 0.595 |
| CO[C@H]1/C=C/O[C@@]2(C)Oc3c(C)c(O)c4c(O)c(c(/C=N/N5CCN(C)CC5)c(O)c4c3C2=O)NC(=O)/C(C)=C\C=C\[C@H](C)[C@H](O)[C@@H](C)[C@@H](O)[C@@H](C)[C@H](OC(C)=O)[C@@H]1C [Rifampicin] | 0.965 |
| CS(=O)(=O)Nc1ccc([N+](=O)[O-])cc1Oc1ccccc1 [Nimesulide] | 0.759 |
| CCCCC1C(=O)N(c2ccccc2)N(c2ccc(O)cc2)C1=O (stereo not given) [Oxyphenbutazone] | 0.884 |
| COc1ccc2[nH]c([S+]([O-])Cc3ncc(C)c(OC)c3C)nc2n1 (stereo not given) [Tenatoprazole] | 0.755 |
